This is one part of the list.
What follows are compounds tested on S. aureus RN4220 (assay: growth inhibition call (relative growth <= 0.2)). Settings: 50 µM.

Growth inhibition call, inactive:
O=C(C[C@@H]1CC[C@H]2[C@@H](COC[C@H](O)CN2C(=O)c2ccncc2)O1)NCc1ccc(-c2ccccc2)cc1
COc1ccc(S(=O)(=O)N(C)C[C@@H]2Oc3ccc(NS(=O)(=O)c4c(C)noc4C)cc3C(=O)N([C@H](C)CO)C[C@@H]2C)cc1
COc1ccc(S(=O)(=O)N2C[C@H](O)COC[C@@H]3O[C@@H](CC(=O)NCCN4CCCCC4)CC[C@H]32)cc1
Cc1ccc(-c2ccc3c(c2)O[C@@H](CN(C)C(=O)CN(C)C)[C@H](C)CN([C@@H](C)CO)S3(=O)=O)cc1
COc1cc(OC)cc(C(=O)OCCCN2CCN(CCCOC(=O)c3cc(OC)cc(OC)c3)CC2)c1
CC(C)NC(=O)Nc1ccc2c(c1)C(=O)N([C@@H](C)CO)C[C@@H](C)[C@H](CN(C)S(=O)(=O)c1cn(C)cn1)OCCCC[C@@H](C)O2
Cc1noc(C)c1NC(=O)Nc1ccc2c(c1)C(=O)N([C@H](C)CO)C[C@H](C)[C@@H](CN(C)S(=O)(=O)c1cn(C)cn1)O2
C[C@H](CO)N1C[C@H](C)[C@H](CN(C)Cc2ccc(Cl)c(Cl)c2)Oc2ccc(NC(=O)CCC(F)(F)F)cc2CC1=O
CCCNC(=O)N(C)C[C@H]1Oc2ncc(-c3ccc(C(=O)N(C)C)cc3)cc2C(=O)N([C@H](C)CO)C[C@H]1C
O=C1C(CCS(=O)c2ccccc2)C(=O)N(c2ccccc2)N1c1ccccc1 (stereo not given)
Cc1noc(C)c1NC(=O)Nc1ccc2c(c1)C(=O)N([C@H](C)CO)C[C@H](C)[C@@H](CN(C)C(=O)Nc1ccc3c(c1)OCO3)OCCCC[C@@H](C)O2
COc1ccc(NC(=O)Nc2cccc3c2O[C@@H](CN(C)C(=O)Nc2cccc4ccccc24)[C@@H](C)CN([C@@H](C)CO)C3=O)cc1
C[C@H]1CN([C@@H](C)CO)C(=O)c2cccc(NC(=O)Nc3ccc(C(F)(F)F)cc3)c2O[C@@H]1CN(C)Cc1ccc2c(c1)OCO2
C[C@@H]1CN([C@H](C)CO)C(=O)c2cccc(NS(=O)(=O)c3ccc(Cl)cc3)c2O[C@@H]1CN(C)Cc1ccc(Cl)c(Cl)c1
Cc1ccc(NC(=O)C[C@@H](N)C(=O)O)cc1
COc1ccc(S(=O)(=O)Nc2ccc3c(c2)C(=O)N([C@H](C)CO)C[C@H](C)[C@@H](CN(C)Cc2ccc(Cl)c(Cl)c2)OCCCC[C@H](C)O3)cc1
Cc1ccc(S(=O)(=O)Nc2ccc3c(c2)C(=O)N([C@H](C)CO)C[C@@H](C)[C@@H](CN(C)CC2CC2)O3)cc1
Cn1cnc2c1c(=O)[nH]c(=O)n2C
C[C@H](CO)N1C[C@H](C)[C@@H](CN(C)Cc2ccc(-c3ccccc3)cc2)Oc2ccc(NS(=O)(=O)c3ccc(Cl)cc3)cc2C1=O
Cc1noc(C)c1S(=O)(=O)N(C)C[C@@H]1Oc2c(NC(=O)c3cnccn3)cccc2C(=O)N([C@@H](C)CO)C[C@@H]1C
C[C@@H]1CN([C@H](C)CO)C(=O)c2cccc(NC(=O)c3nc4ccccc4s3)c2O[C@@H]1CN(C)Cc1ccc(C(F)(F)F)cc1
COc1ccc(NC(=O)Nc2cccc3c2O[C@@H](CN(C)Cc2ccc(Oc4ccccc4)cc2)[C@H](C)CN([C@@H](C)CO)C3=O)cc1
COCC#Cc1ccc2c(c1)O[C@@H](CN(C)C(=O)Nc1ccc(OC)cc1)[C@H](C)CN([C@H](C)CO)S2(=O)=O
COC[C@@H]1CN(C(=O)c2cscn2)N1C
C[C@@H]1CCCCO[C@@H](CN(C)Cc2ccccc2)[C@H](C)CN([C@@H](C)CO)C(=O)c2cc(NC(=O)C3CCCCC3)ccc2O1
Cc1[nH]c(=O)[nH]c(=O)c1S(=O)(=O)NCc1ccccn1
C[C@@H]1CN([C@@H](C)CO)C(=O)c2cc(NC(=O)Nc3ccc(C(F)(F)F)cc3)ccc2O[C@@H](C)CCCCO[C@@H]1CN(C)C(=O)Nc1ccccc1
C=CC1CN2CCC1CC2C(O)c1ccnc2ccc(OC)cc12 (stereo not given)
C[C@@H]1CN([C@H](C)CO)C(=O)Cc2cc(NS(=O)(=O)c3cn(C)cn3)ccc2O[C@H]1CN(C)S(=O)(=O)c1ccc(Cl)cc1
C/C=C/c1ccc2c(c1)O[C@@H](CN(C)C(=O)c1ccc3c(c1)OCO3)[C@@H](C)CN([C@H](C)CO)S2(=O)=O
O=C(C[C@@H]1C[C@H]2c3cc(NC(=O)Nc4ccc(C(F)(F)F)cc4)ccc3O[C@H]2[C@H](CO)O1)NCc1ccc(Cl)cc1
Cc1noc(C)c1S(=O)(=O)Nc1ccc2c(c1)C(=O)N([C@@H](C)CO)C[C@@H](C)[C@H](CN(C)Cc1ccc(-c3ccccc3)cc1)O2
C[C@@H]1CN([C@@H](C)CO)C(=O)Cc2cc(NC(=O)Cc3ccccc3)ccc2O[C@@H]1CN(C)Cc1ccc(Oc2ccccc2)cc1
COc1ccc(S(=O)(=O)N(C)C[C@H]2Oc3ccc(NC(=O)c4ccncc4)cc3C(=O)N([C@H](C)CO)C[C@H]2C)cc1
Cc1cc(=O)nc(-n2ncc(C#N)c2N)[nH]1
OCc1ccc2c(c1)OCCO2
O=C(C[C@H]1CC[C@H]2[C@@H](COC[C@H](O)CN2C(=O)Nc2ccc(C(F)(F)F)cc2)O1)NCc1ccncn1
NC1(C(=O)O)CC(C(=O)O)C1 (stereo not given)
C[C@@H]1CCCCO[C@H](CN(C)C(=O)NC2CCCCC2)[C@@H](C)CN([C@H](C)CO)C(=O)c2cc(NS(=O)(=O)c3cccs3)ccc2O1
COc1ccc(NC(=O)N(C)C[C@@H]2OCCCC[C@@H](C)Oc3ccc(NC(=O)Nc4ccc(F)cc4)cc3C(=O)N([C@H](C)CO)C[C@@H]2C)cc1
